In all, about 110,000 compounds were measured (“z-score”: median about -0.1, highest 2% from about 2 on). The list shows a part of the results. Activity calls are given as the source filed them.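 Rule for the calls: active = z-score in the third read window above 3 or below -3; inactive = the rest.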

In this experiment the target is Metabotropic glutamate receptor 8 (Rattus norvegicus) (UniProt P70579). The experiment can be described thus: mGluR8 Gi/Go-coupled signaling modulation – cell-based, rat, thallium flux, HTS, primary screen (AID 488969). Conditions: HEK293 rat mGluR8, GIRK (G protein-gated inwardly rectifying potassium channel) thallium flux, FluoZin2; at 10 µM; stronger effect = higher value; submaximal glutamate (EC20) added with thallium.
Sequence of UniProt P70579 (P70579 whole entry, looked up): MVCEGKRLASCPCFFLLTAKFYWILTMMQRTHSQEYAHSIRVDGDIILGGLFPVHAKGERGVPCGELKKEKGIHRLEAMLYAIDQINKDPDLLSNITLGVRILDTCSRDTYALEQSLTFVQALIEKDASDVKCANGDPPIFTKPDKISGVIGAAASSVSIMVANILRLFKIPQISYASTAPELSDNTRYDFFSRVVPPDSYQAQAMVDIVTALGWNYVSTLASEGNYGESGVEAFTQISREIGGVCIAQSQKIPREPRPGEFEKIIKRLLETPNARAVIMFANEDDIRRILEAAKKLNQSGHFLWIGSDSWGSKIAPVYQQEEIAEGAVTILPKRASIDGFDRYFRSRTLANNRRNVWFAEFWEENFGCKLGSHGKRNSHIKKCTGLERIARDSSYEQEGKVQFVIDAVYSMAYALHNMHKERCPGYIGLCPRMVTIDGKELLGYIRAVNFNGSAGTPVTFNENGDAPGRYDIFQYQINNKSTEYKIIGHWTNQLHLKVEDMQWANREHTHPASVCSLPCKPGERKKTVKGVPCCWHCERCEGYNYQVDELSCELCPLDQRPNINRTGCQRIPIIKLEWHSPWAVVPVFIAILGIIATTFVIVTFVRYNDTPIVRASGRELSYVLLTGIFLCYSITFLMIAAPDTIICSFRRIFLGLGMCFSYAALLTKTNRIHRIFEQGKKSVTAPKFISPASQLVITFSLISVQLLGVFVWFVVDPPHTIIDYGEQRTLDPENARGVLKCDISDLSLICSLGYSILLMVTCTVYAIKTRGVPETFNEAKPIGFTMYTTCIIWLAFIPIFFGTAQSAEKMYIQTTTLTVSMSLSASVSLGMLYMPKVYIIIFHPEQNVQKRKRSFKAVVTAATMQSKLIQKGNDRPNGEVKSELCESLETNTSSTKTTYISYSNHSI
With `CC(=O)OCCCNc1cc(Sc2nc3ccccc3s2)c2nonc2c1[N+](=O)[O-]`, the z-score was found to be 0.511.

`Cc1cccc(N2CCN(C(=O)Cc3ccc(Br)cc3)CC2)c1C` came in with a z-score of -0.202.

`CC(C)C(NS(=O)(=O)c1cccs1)C(=O)N(C)Cc1ccccc1` (stereo unspecified) showed a z-score of -0.217. Next, `O=C(Nc1nnc(-c2cccs2)o1)c1cccc(C(F)(F)F)c1`: active: 14.1; `COc1ccc(-c2cc(C(F)(F)F)nc(N3CCN(C)CC3)n2)cc1OC`: -0.0828. As for `CC1=CCC2C(=O)N(c3ccc(Br)cc3C)C(=O)C2C1` (stereo unspecified), the z-score came out at 0.000957.

On to `COc1cccc(-c2csc(N3CCN(CC(=O)Nc4ccc5c(c4)OCO5)CC3)n2)c1`, for which the z-score was 0.233. For the molecule `CC(C)(C)c1nnc(N/N=C/c2ccccc2O)n(N)c1=O`, the z-score was -0.149. Molecule `O=C(O)C1C2C=CC(O2)C1C(=O)NC1CCCc2ccccc21` (stereo unspecified) gave a z-score of -0.332. To `CSCCC(NC(=O)OC(C)(C)C)C(=O)Oc1ccc2c(=O)c(-c3ccc4c(c3)OCCO4)coc2c1` (stereo unspecified) belongs -0.216; to `COC(=O)c1ccc(C(=O)Nc2ccc3nc(-c4cccnc4)[nH]c3c2)cc1`, -0.377; to `N#CC1=C(N)NC(SCC(=O)Nc2ccc(Br)cc2)=C(C#N)C12CCCCC2`, -0.331. Consider `COCCNC(=O)C(c1cccs1)N(CCc1ccccc1)C(=O)Cn1nnc2ccccc21` (stereo unspecified), for which the z-score stood at 0.113. `O=C(CCCCn1c(=O)[nH]c2ccsc2c1=O)NCc1ccc2c(c1)OCO2` showed a z-score of -0.295. In the case of `O=C1N2c3ccccc3CCc3cccc(c32)C1(O)C(F)(F)F` (stereo unspecified), the z-score stood at 1.23. Turning to `CC(C)(C)NS(=O)(=O)c1ccc(NC(=O)c2cc(-c3ccccc3)nc3ccccc23)cc1`, the z-score is -0.226. To `CCn1c(SCc2nc(-c3cccs3)no2)nnc1-c1c[nH]c2ccccc12` belongs 0.136; to `OCCN1CCN(c2ncnc3ccc(Br)cc23)CC1`, -0.924.

Consider `O=C(O)c1ccccc1COc1ccccc1Cl`, for which the z-score is -0.12. Next, `O=C(NCCN1CCOCC1)C(=O)NCC1CCCO1` (stereo unspecified): -0.182; `O=C(CSc1nc2ccccc2[nH]1)N/N=C/C=C\c1ccccc1[N+](=O)[O-]`: -0.249; `COc1ccc(S(=O)(=O)N2CCC(O)(c3ccc4c(c3)OCO4)CC2)cc1`: 0.413.

`CCc1ccc(NC(=O)CSCCN2C(=O)c3ccccc3C2=O)cc1` gave a z-score of -0.305. Take `COc1ccc(OC)c(/C=C2\S/C(=N/NC(=O)c3ccc4ccccc4c3)NC2=O)c1`: the z-score was -1.95. In the case of `CC(C)OCCCn1c(=S)[nH]c2cc3c(cc2c1=O)OCO3`, the z-score was active: 6.19. The molecule `Cc1cc(N(C)C)c(C#N)c(N2CCCCC2)n1` showed a z-score of -0.733. As for `CC(C)OC(=O)CSc1nnc(CNc2cccc(Cl)c2)n1C`, the z-score is -0.138.

Molecule `O=C(Nc1ccccc1OC(F)F)c1ccccc1` showed a z-score of 0.14. `CCOc1ccc2nc(Nc3nc(CSc4nnnn4-c4ccccc4)cc(=O)[nH]3)nc(C)c2c1` returned a z-score of -0.445. For the molecule `Cn1c(CSc2nc3ccccc3s2)nnc1SCC(=O)NCc1cccnc1`, the z-score was -0.259.

`CCc1cc(Br)ccc1N1C(=O)C2CC=CCC2C1=O` (stereo unspecified) displayed a z-score of -0.175.

The molecule `CCCCCNC(=O)C(C)Sc1ccc(Cl)cc1` (stereo unspecified) returned a z-score of -0.75. For `O=C(O)c1cc(N2C(=O)C3CC=CCC3C2=O)ccc1NCc1cccnc1` (stereo unspecified), the z-score turned out to be 0.0694. Next, `Cc1cc(C)cc(NC(=O)C2CCCN2C(=O)Oc2ccccc2)c1` (stereo unspecified): 0.0407; `CCCCCC(=O)N/N=C/c1ccc(N(C)C)cc1`: -0.127; `CCOc1ccccc1NC(=O)C1CCCN(S(=O)(=O)c2cccc3cccnc23)C1` (stereo unspecified): -0.252. Take `Cc1ccc2[nH]c(C)c(CC(=O)O)c2c1`: the z-score was -0.101. `COc1cc(/C=C(\C#N)C(=O)NC2CCCCC2C)ccc1OS(=O)(=O)c1ccc(C)cc1` (stereo unspecified) came in with a z-score of 0.0167.

Consider `CCOC(=O)c1csc(Nc2nc3ccc(F)cc3s2)n1`, for which the z-score was -0.247.

In turn, `COCCn1c(C)cc(C(=O)CSc2nc3ccccc3c(=O)n2Cc2ccco2)c1C` had a z-score of -0.0437. The molecule `Cc1nn(Cc2ccc(Cl)cc2)c(C)c1N` yielded a z-score of 0.168. `CC1(C)C2CC=C(/C=N/NC(=O)c3ccc(Cl)cc3)C1C2` (stereo unspecified) came in with a z-score of 0.355. To `CCOc1cc(/C=N/O)ccc1OS(=O)(=O)c1ccc(C)cc1` belongs -0.55.

On to `C=CCn1c(SCc2cc(=O)n3cc(C)ccc3n2)nnc1-c1cccc(C)c1`, for which the z-score was -0.416. `Cc1nc2sc(C)c(C)c2c(=O)o1` had a z-score of -0.0278. `Cc1nc(NS(=O)(=O)c2ccc(Br)cc2)c2c3c(sc2n1)CCC3` returned a z-score of -0.442. The molecule `Cc1cc(C(F)(F)F)c2c(C)nn(CCc3nn[nH]n3)c2n1` showed a z-score of 0.0333.

In turn, `COc1ccccc1OCc1ccc(C(=O)Nc2ccccc2F)cc1` had a z-score of -0.156. Molecule `OC(COCc1ccco1)CN1CCN(C(c2ccccc2)c2ccccc2)CC1` (stereo unspecified) returned a z-score of -0.619.

On to `Cc1c(NC(=O)C(=O)/C=C(\O)c2ccc(Br)cc2)c(=O)n(-c2ccccc2)n1C`, for which the z-score is -0.237. To `CC(C)CC1CC(=O)OC1(C)C(=O)CSc1nc2ccccc2s1` (stereo unspecified) belongs -0.602.

In turn, `CCOC(=O)c1[nH]c2ccc(OC)cc2c1NC(=S)N1CCN(c2ccc(F)cc2)CC1` showed a z-score of 0.623.

For `CC1(C)NC(=O)N(CCCOc2ccc3c(c2)CCC3)C1=O`, the z-score turned out to be 0.297. `Cc1nc(NC(=O)c2cccnc2)ccc1Br`: the z-score is -0.136. In the case of `CCOC(=O)Cc1nn(CCc2ccccn2)c(=O)c2ccccc12`, the z-score was found to be 0.0376. As to `CCCCc1nnc(NC(=O)CCSc2ccccc2)s1`, the z-score came to 0.0449. `O=C(N/N=C/c1cccs1)c1c[nH]c2ccccc12` had a z-score of 1.01. On to `O=C(Cn1nnc2ccccc21)N/N=C/c1ccco1`, for which the z-score amounted to 0.356. In turn, `COc1ccc(NC(=O)CN2C(=O)C(C)SC(C)C2=O)c(OC)c1` (stereo unspecified) showed a z-score of -0.101.

The molecule `CCc1cccc(C)c1NC(=O)C(c1ccccc1)N1CCC1=O` (stereo unspecified) registered a z-score of -0.0775. The molecule `COc1ccc(C2C(C(=O)NCc3ccco3)CCC(=O)N2c2ccc(OC)cc2)cc1` (stereo unspecified) gave a z-score of -0.111. Take `COc1cccc(C2CC(c3ccc(C(C)C)cc3)n3nc(N)nc3N2)c1` (stereo unspecified): the z-score was found to be 0.0624. With `COc1ccc(NC(=O)N2CC(C)OC(C)C2)cc1OC` (stereo unspecified), the z-score is -0.307. In turn, `Cc1ccc(C)c(NS(=O)(=O)c2ccc(OCC(=O)NCc3cccnc3)cc2)c1` displayed a z-score of -0.622. As for `COc1ccc(/C=C/c2c([N+](=O)[O-])c(=O)n(C)c(=O)n2C)cc1O`, the z-score is 0.00753.

Consider `Cc1cc(=O)c2c(o1)CC(C)(C)CC2=O`, for which the z-score was determined as 0.362. Regarding `COc1ccc2c(c1)SCC/C2=C\CN1C(=O)CCC1=O`, the z-score was determined as 0.23.

In the case of `CCOC(=O)/C(N=Nc1ccc(F)cc1)=C(/O)c1ccc([N+](=O)[O-])cc1`, the z-score was -0.494.

The molecule `CCOC(=O)/C(C#N)=C\c1ccco1` showed a z-score of -0.494.

In the case of `Cc1nn(-c2nnc(C)c(=O)[nH]2)c(C)c1SCC(=O)Nc1ccc(F)cc1`, the z-score was determined as 0.576.

Consider `Cc1cc2cc(NC(=O)c3ccco3)ccc2[nH]1`, for which the z-score is -0.00388. Take `Nc1nc(CSc2ccccn2)nc(Nc2ccccc2)n1`: the z-score was -0.528. In turn, `COc1ccccc1NC(=O)Cc1noc(CSc2cc(C)c3ccccc3n2)n1` came in with a z-score of -0.517. Turning to `COc1ccccc1/C=C/C1(C(=O)NC2CCCC2)CC(=O)N1c1ccc(F)cc1` (stereo unspecified), the z-score was 0.761. For `NC(=O)c1ccc([N+](=O)[O-])cc1SCc1ccccc1`, the z-score is -0.165. `N#CCCN1CCN(S(=O)(=O)c2ccc(S(=O)(=O)NC3CCCC3)cc2)CC1`: the z-score was -0.096. Molecule `Cc1cccc(N2CC(C(=O)O)CC2=O)c1` (stereo unspecified) returned a z-score of -0.0773.

Regarding `Cc1cccc(NC(c2ccc(C)s2)c2ccc3ccc(C)nc3c2O)n1` (stereo unspecified), the z-score came out at 0.129.

In the case of `N#Cc1cc(-c2ccccc2)nc(Oc2ccc(Cl)cc2)n1`, the z-score turned out to be 0.0418. `CCOC(CCn1c(SCc2ccc([N+](=O)[O-])cc2)nc2ccccc2c1=O)OCC`: the z-score is -0.144. On to `CCOC(=O)c1c(N)sc(C(=O)N2CCCC(C(N)=O)C2)c1C` (stereo unspecified), for which the z-score is 0.334. In turn, `COC(=O)c1[nH]c2ccc(C)cc2c1NC(=O)CN1CCN(C(=O)c2ccccc2)CC1` gave a z-score of -0.752. The molecule `CC(=O)c1cccc(S(=O)(=O)N2CCC(n3nnc4cc(F)ccc43)CC2)c1` came in with a z-score of 0.0157. Take `Cc1nn(CC(=O)NCCc2ccc(Cl)cc2)c(C)c1[N+](=O)[O-]`: the z-score is -0.0447. Next, `Clc1ccc2nc(N3CCN(c4ccccc4)CC3)sc2c1`: 0.0118; `Cc1ccc(C)c(N2C(=O)CS/C2=N\NC(=O)c2ccccc2Cl)c1`: -0.125; `Cc1cc(C)c(C#N)c(SC(F)F)n1`: -0.254. As to `CCC(C)NS(=O)(=O)c1ccc(OCC(=O)N2CCC(C)CC2)cc1` (stereo unspecified), the z-score is -0.31. Molecule `CC(NC(=O)/C=C/c1ccco1)c1nc2ccccc2n1Cc1ccccc1F` (stereo unspecified) showed a z-score of -0.166. The molecule `CN(C)/C=C(/C(=O)c1ccccc1Cl)S(=O)(=O)c1ccccc1` had a z-score of -0.17. Consider `CC(C)NC(=O)CC(=O)N/N=C/c1ccc(F)cc1`, for which the z-score came to 0.401. In turn, `O=C(N1CCCCCC1)N1CCN(C(=O)N2CCOCC2)CC1` returned a z-score of 1.56. Turning to `O=C(CNC(=O)c1cccc(OC(F)F)c1)OCc1cc(=O)n2cc(Br)ccc2n1`, the z-score is -0.323.

As to `CSc1nc(Oc2ccc(=O)n(C)n2)nc(N(C)C)n1`, the z-score was 0.0793. To `CN(C)CCNC(=O)/C(=C/c1cccc([N+](=O)[O-])c1)NC(=O)c1ccccc1` belongs 0.133. To `Cc1ccc(C(=O)NC2CCCCCC2)o1` belongs -0.461. Next, `COc1ccc(Nc2ncc(C(=O)N3CCN(c4ccc(F)cc4)CC3)c3ccccc23)cc1`: -0.169; `Cc1ccsc1C(=O)OCC(=O)c1cc2ccccc2o1`: 0.678. `Cc1ccnc(N2CCCC(C(=O)Nc3cc(F)ccc3C)C2)n1` (stereo unspecified) returned a z-score of 0.469. To `S=C1NCCc2ccc(Cl)cc2C1c1ccccc1` (stereo unspecified) belongs -0.00171; to `CCOc1ccc(CNCc2cccnc2)cc1`, 0.0145; to `CCN1CCN(C(=O)CCc2nc3ccccc3c(=O)[nH]2)CC1`, -0.0416.

The molecule `O=C(CSc1ncnc2c1nnn2-c1ccc(F)cc1)NCC1CCCO1` (stereo unspecified) registered a z-score of 0.335. Next, `Cc1ccc(S(=O)(=O)N2CCOCC2)cc1NC(=O)Cn1cc(C(F)(F)F)cc(Cl)c1=O`: -0.641; `COC(=O)c1[nH]c(=O)c2ccccc2c1O`: -0.232; `COc1ccc(C(C(=O)NC2CCCC2)N(C(=O)c2snc(-c3ccc(F)cc3)c2N)c2cccc(F)c2)cc1` (stereo unspecified): -1.66. On to `O=C(CSCc1ccc(Cl)cc1)NCc1ccc2c(c1)OCO2`, for which the z-score came out at 0.0576. Molecule `O=c1ccc2ccc(OCc3nnc(-c4ccccc4Br)o3)cc2o1` showed a z-score of 1.13. As for `COCc1cc(C)nc(OCC(=O)N/N=C/c2ccc(OC)c(O)c2)c1C#N`, the z-score is 0.151. Molecule `COc1cccc2c(=S)c(CCC(C)=O)c(C)[nH]c12` showed a z-score of 0.214. As to `COCCOC(=O)C1=C(C)NC(=O)CC1c1cc2c(cc1Br)OCO2` (stereo unspecified), the z-score was -0.00397.

(Values after PubChem BioAssay AID488969 (Vanderbilt High Throughput Screening Facility, 2010).)
